Test results: PubChem BioAssay (NCI)
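Cultured in 96-well plates, cells were exposed to test compound for 48 hours across five concentrations. TGI marks complete inhibition of growth.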 The source holds more than one record for some entries. Only these are listed. The source may hold further records. A record mostly stands for its own series of concentrations, not given here; a value can be the end of its range.

What was measured:
HCT-15 colon = assay: inhibition of tumour cell growth, NCI panel, 48 h
U251 CNS = assay: inhibition of tumour cell growth, NCI panel, 48 h

CN(O)C(=O)SCC(NC(=O)CCC(N)C(=O)O)C(=O)NCC(=O)O (configuration not stated)
TGI (HCT-15 colon): > 2 µM, 116 µM, > 2 mM | TGI (U251 CNS): > 2 µM, 148 µM, > 2 mM
